Experimental data: PubChem BioAssay AID652104 (National Center for Advancing Translational Sciences (NCATS), 2013)
Among all 410,000 compounds or so, about 7,200 (1.8%) were called active. Inconclusive results, whose numbers are uncertain, are shown with a selection of clear calls. The call rests on the fitted dose curve; in most records, active means well fitted activation curve with a large enough effect; inconclusive means small, poorly fitted or top-dose-only effect, or another doubt; inactive means no such curve, though single readings can be large or run the other way. No potency is given beside an inconclusive call; the fits are too rough.

Test: qHTS of TDP-43 Inhibitors; further: nearly all actives have a fitted effect of over 50% in size; on growth rescue (activation): % of control where 0% means no effect
Details: TDP-43 expressing yeast growth rescue, BacTiter-Glo, 24 h; growth rescue (activation): at 46.1 µM (top of the series) unless noted
Method in brief: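 In this qHTS, compounds that restore growth of yeast expressing TDP-43 appear as activators. Cells (OD600=0.02, galactose medium, raffinose-pregrown) are incubated with compound 24 hr at 30 deg C and growth is quantified by BacTiter-Glo.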
Potency means the concentration at half of the fitted maximal effect; tags describe the fitted curve by direction and shape.

| SMILES | Potency | growth rescue (activation) |
| --- | --- | --- |
| COCCNc1nc2cc(-c3ccc(F)cc3)sc2c(=O)n1C | inconclusive [activator, partial curve] |  |
| CCCCCCOc1ccc(/C=C/C(=O)Nc2sc3c(c2C(=O)OC)CCC3)cc1OC | active: 17.8 µM |  |
| CCOc1ccccc1NC(=O)c1ccc(NC(=O)c2ccco2)cc1 | inconclusive [activator, single point] |  |
| CCOC(=O)[C@]12CCCC=C1N(CCC1=CCCCC1)C(=O)[C@H](CC(=O)NCc1ccc(C)o1)C2 | inconclusive [activator, single point] |  |
| COc1ccc(CCN2C(=O)C(C)=C(C)C2=O)cc1OC | inconclusive [activator, partial curve, poor fit] |  |
| Cc1cc(Nc2ccc(Br)cc2)n2nc(-c3ccccc3C)nc2n1 | active: 14.1 µM |  |
| O=C(c1ccc(-n2nc(C(F)(F)F)c3c2CCCC3)cc1)N1CCOCC1 | inconclusive [activator, partial curve] |  |
| O=C(CSc1nc2ccsc2c(=O)n1Cc1ccc(F)cc1)NCc1ccc(Cl)cc1 | inactive |  |
| COc1ccc(OC)c(-c2cc(C(=O)Nc3ccc(C)c(C)c3)no2)c1 | inactive |  |
| O=c1[nH]c2cc([N+](=O)[O-])ccc2c2ccccc12 | inconclusive [activator, single point] |  |
| O=C(COC(=O)CCSc1ccc(Cl)cc1)NCCc1ccccc1 | inconclusive [activator, single point] |  |
| Cc1[nH]c2ccccc2c1N=Nc1cccc(C(=O)O)c1 | active: 17.8 µM |  |
| Cc1nc2nc(SCc3ccccc3)nn2c(C)c1C | inconclusive [activator, single point] |  |
| COc1ccccc1NC(=O)c1cc2cc(Br)ccc2cc1O |  | inconclusive: -39.5% [activator] |
| CCC1CSC(Nc2ccc(C(=O)/C=C/c3ccc(Oc4ccccc4)cc3)cc2)=N1 (stereo not drawn) | inconclusive [activator, single point] |  |
| Cc1ccc(NC(=S)N=Nc2c(O)n(C)c3ccc(S(=O)(=O)N4CCOCC4)cc23)cc1C | inconclusive [activator, partial curve, poor fit] |  |
| Cc1ccc(S(=O)(=O)N2CCC[C@H]2C(=O)OCCN2C(=O)c3ccccc3C2=O)cc1 | inconclusive [activator, partial curve] |  |
| CCOc1ccccc1NC(=O)C1CCCN(S(=O)(=O)c2ccccc2)C1 (stereo not drawn) | inconclusive [activator, single point] |  |
| O=[N+]([O-])c1cccc(-c2ccc(/C=N/NC(=S)Nc3cccc(F)c3)o2)c1 | active: 17.8 µM |  |
| COc1cc(/C=C/C(=O)OCC(=O)Nc2ccc([N+](=O)[O-])cc2)ccc1O | inactive |  |
| O=C(COC(=O)C1CCN(S(=O)(=O)c2cccs2)CC1)Nc1ccc(F)c(F)c1F | inconclusive [activator, partial curve] |  |
| CC(=O)Nc1ccc(NC(=S)NC(=O)/C=C/c2ccco2)cc1 |  | inactive: -22.5% [at 1.82 µM] |
| CCCSc1cc(N2CCN(C)CC2)nc(-c2ccc(OC)cc2)n1 | inactive |  |

| SMILES | Potency | growth rescue (activation) |
| --- | --- | --- |
| Cc1nonc1CN(C)C(=O)c1cc(COc2ccc(F)cc2Cl)on1 | inconclusive [activator, single point] |  |
| CC1=NNC(=O)/C1=C\c1cn(-c2ccccc2)nc1-c1ccccc1 |  | inconclusive: -60.7% [activator] |
| c1ccc2c(COn3nnc4ccccc43)cccc2c1 | inconclusive [activator, single point] |  |
| CCCOc1ccccc1OCC(=O)Nc1ccc(S(=O)(=O)N2CCCC2)cc1 | inconclusive [activator, single point] |  |
| CC(=O)c1ccc(N2CCN(C(=O)c3ccc4[nH]c(C)c(C)c4c3)CC2)cc1 | inconclusive [activator, single point] |  |
| CN(Cc1ccccc1)C(=O)COC(=O)c1cncc(Br)c1 | inconclusive [activator, full curve, poor fit] |  |
| O=C(CSc1ccc(Br)c2cccc(Cl)c12)Nc1ccc(S(=O)(=O)Nc2nccs2)cc1 | inactive |  |
| CCS(=O)(=O)c1ccccc1C(=O)N(Cc1cccnc1)c1nc2cc(C)c(C)cc2s1 | inconclusive [activator, partial curve] |  |
| Cc1c(C(=O)NCc2ccc(Cl)cc2)sc2nc3n(c(=O)c12)CCCC3 | inconclusive [activator, single point] |  |
| COc1ncnc(OC)c1S(=O)(=O)Nc1ccc(C(F)(F)F)cc1 | inconclusive [activator, partial curve] |  |
| S=C(Nc1ccc(Br)cc1)N1CCCC1 | inconclusive [activator, partial curve] |  |
| Brc1cccc(C2CC(c3ccccc3)n3nnnc3N2)c1 (stereo not drawn) | inconclusive [activator, partial curve, poor fit] |  |
| Cc1cc2nc(-c3ccc(Cl)cc3)c(Cc3cccc(F)c3)n2c(C)c1Br | inconclusive [activator, partial curve, poor fit] |  |
| O=C(Cn1c(=O)sc2ccccc21)Nc1nc2c(s1)CCCC2 | inconclusive [activator, partial curve] |  |
| COc1cc(N=Nc2ccc(Br)cc2)cc(C=O)c1O | active: 12.6 µM |  |
| COc1ccc(-c2nc(CSCC(=O)NCCc3ccc(C)cc3)c(C)o2)cc1OC | inconclusive [activator, partial curve] |  |
| O=S(=O)(c1ccc(-n2cnnn2)cc1)N1CCNCC1 | inconclusive [activator, single point] |  |
| O=C(COC(=O)c1cc(Cl)ccc1[N+](=O)[O-])NCc1ccc(Cl)cc1Cl | inconclusive [activator, single point] |  |
| CCOC(=O)CSc1nc2sc(C(=O)O)c(C)c2c(=O)[nH]1 | inconclusive [activator, partial curve] |  |
| COc1ccccc1-c1cc(C(F)(F)F)nc(S(=O)(=O)CCCC(=O)Nc2cccnc2Cl)n1 | active: 12.6 µM |  |
| Cc1ccc(C(=O)Cn2nc(C)c([N+](=O)[O-])c2C)c(C)c1 | inactive |  |
| O=C(COc1ccccc1[N+](=O)[O-])Nc1ccccc1N1CCCCC1 | inconclusive [activator, full curve, poor fit] |  |
| CCOC(=O)c1sc(Nc2ccc(C)cc2C)nc1C | inconclusive [activator, single point] |  |

| SMILES | Potency | growth rescue (activation) |
| --- | --- | --- |
| COc1cc(-c2cc3nc(NCCOc4ccccc4)ccn3n2)cc(OC)c1OC | active: 31.6 µM |  |
| Cc1cccc(Cn2c(=O)n(Cc3ccco3)c(=O)c3ccccc32)c1 | inconclusive [activator, partial curve, poor fit] |  |
| O=C(c1ccc(-c2ccccc2)cc1)N1CCN(c2ccccc2F)CC1 | inconclusive [activator, single point] |  |
| COc1ccccc1NC(=S)NC(=O)CC(C)C | inconclusive [activator, partial curve] |  |
| O=C(O)c1ccc(-c2ccccc2C(F)(F)F)o1 | inconclusive [activator, single point] |  |
| CCOc1ccccc1C(=O)N(Cc1ccc(N(C)C)cc1)CC1CCCO1 (stereo not drawn) | inactive |  |
| COC(=O)c1cc(C#N)c(SCc2ccccc2)nc1C | inconclusive [activator, single point] |  |
| O=C(OCC(=O)N1CCc2ccccc21)c1c2c(nc3ccccc13)CCCC2 | inconclusive [activator, partial curve] |  |
| CCCC(=O)N1CCN(c2nnc(-c3ccccc3)c3ccccc23)CC1 | inconclusive [activator, single point] |  |
| COc1ccc(NCc2ccccc2-c2nnc(-c3ccccc3)o2)cc1Cl | inconclusive [activator, partial curve] |  |
| Cc1sc(NC(=O)c2cccs2)nc1-c1ccccc1 | inconclusive [activator, partial curve] |  |
| CCN(CC)c1ccc(-c2nc(-c3ccncc3)no2)cc1[N+](=O)[O-] | inconclusive [activator, partial curve] |  |
| Cc1ccc2cccc(NC(=O)c3cccc4ccccc34)c2n1 | inactive |  |
| O=C(OCc1cc(=O)n2ccsc2n1)C1(c2ccc(Cl)cc2)CC1 | inconclusive [activator, partial curve] |  |
| CCc1cccc2sc(N3CCN(C(=O)C4CC4)CC3)nc12 | active: 11.2 µM |  |
| COc1ccc(/C=C/c2nc(N)nc(-c3ccccc3O)n2)cc1OC | active: 15.8 µM |  |
| CCc1cc2c(=O)[nH]c(Cc3ccccc3)nc2s1 | inconclusive [activator, partial curve] |  |
| COc1ccc(Nc2ncnc3c2cnn3-c2ccc(C)cc2C)cc1 | inconclusive [activator, full curve] |  |
| CCCCNC(=O)c1ccc2c(OCC)n(CCCC)nc2c1 | inactive |  |
| Cc1noc(C)c1S(=O)(=O)Nc1ccc(C(=O)Nc2ccc(OC(F)(F)F)cc2)cc1 | inconclusive [activator, single point] |  |
| CS(=O)(=O)c1nc2c(cc1C#N)CCCC2 | inconclusive [activator, partial curve, poor fit] |  |
| Brc1ccc(C2=CC(c3ccco3)n3ncnc3N2)cc1 (stereo not drawn) | active: 12.6 µM |  |
